Results reported in patent publication US20110020329A1, “CONJUGATES OF ANTI-RG-1 ANTIBODIES” (Bristol-Myers Squibb Company, priority 2007, published 2011).

B1: anti-RG-1: naked human monoclonal anti-RG-1 antibody (19G9; VH SEQ ID NO: 13, VL SEQ ID NO: 15) (antibody, listed as Homo sapiens, V domains shown)
VH: EVQLVQSGGGLVHPGGSLRLSCAGSGFTFSSYVMHWLRQAPGKGLEWVSVIGTGGVTHYADSVKGRFTISRDNAKNSLYLQMNSLRAEDMAMYYCARWGYYGSGSYENDAFDIWGQGTMVTVSS
VL: [… about 100 residues …]
B2: anti-RG-1-Toxin: anti-RG-1 antibody 19G9 conjugated to the molecule of formula (m), formula (A), substitution ratio 1-1.5 (conjugate)
VH: B1 VH
VL: [… about 100 residues …]

Experiments:
[1] = test system: LNCaP/prostate stroma cell xenograft; assay: Efficacy against LNCaP/prostate stroma coculture tumors in SCID mice; type: in vivo, CB17.SCID mice; conditions: LNCaP/stroma model, high RG-1 in stroma; IP single dose Day 0; antibody 30 mg/kg, conjugate 0.03, 0.1, 0.3 μmole/kg cytotoxin; to Day 62
LNCaP xenograft = assay: Efficacy against LNCaP tumors in SCID mice; type: in vivo, CB17.SCID mice; conditions: LNCaP model, low RG-1 in stroma; IP single dose Day 0; antibody 30 mg/kg, conjugate 0.03, 0.1, 0.3 μmole/kg cytotoxin; to Day 55

Row | Molecule | effect on tumor growth (median increase in tumor volume) [1] | effect on tumor growth (mean increase in tumor volume) (LNCaP xenograft)
1 | B1 | no inhibitory effect on tumor growth | no inhibitory effect on tumor growth
2 | B2 | – | similar, but unexpected, anti-tumor activity was observed
